Where a chain is given by its changes, count along the chain named. The list shows a part of the results.

This is an account of results in article PMC9911399, “Two distinct binding modes provide the RNA-binding protein RbFox with extraordinary sequence specificity”.

The labels stand for the following.
T1: RBFOX1 RRM RbFoxmut (Fox-RRM*) (Homo sapiens, UniProt Q9NWB1 109-208, R118D;E147R;N151S;E152T)
T1 sequence: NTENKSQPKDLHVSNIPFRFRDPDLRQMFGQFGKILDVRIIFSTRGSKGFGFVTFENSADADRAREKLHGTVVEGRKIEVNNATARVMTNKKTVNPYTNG

B1: AUCCGGC (DNA:RNA)
RNA: GGGAGACCGGAAUUCAGAUUGUCCAUCCGGCUUAAAUCCCGUCGUAGCCACCA
DNA 1: CAATCTGAATTCCGGTCTCCC
DNA 2: TGGTGGCTACGACGGGATT
B2: GAUAACU (DNA:RNA)
RNA: GGGAGACCGGAAUUCAGAUUGUCCGAUAACUUUAAAUCCCGUCGUAGCCACCA
DNA 1: CAATCTGAATTCCGGTCTCCC
DNA 2: TGGTGGCTACGACGGGATT
B3: GUAUCAA (DNA:RNA)
RNA: B1 RNA with A25G, C27A, C28U, G29C, G30A, C31A
DNA 1: CAATCTGAATTCCGGTCTCCC
DNA 2: TGGTGGCTACGACGGGATT
B4: CUACGUG (DNA:RNA)
RNA: B1 RNA with A25C, C27A, G30U, C31G
DNA 1: CAATCTGAATTCCGGTCTCCC
DNA 2: TGGTGGCTACGACGGGATT
B5: AAGACAA (DNA:RNA)
RNA: B2 RNA with G25A, U27G, A29C, C30A, U31A
DNA 1: CAATCTGAATTCCGGTCTCCC
DNA 2: TGGTGGCTACGACGGGATT
B6: AGGCCAC (DNA:RNA)
RNA: B1 RNA with U26G, C27G, G29C, G30A
DNA 1: CAATCTGAATTCCGGTCTCCC
DNA 2: TGGTGGCTACGACGGGATT
B7: AUUCGAU (DNA:RNA)
RNA: B1 RNA with C27U, G30A, C31U
DNA 1: CAATCTGAATTCCGGTCTCCC
DNA 2: TGGTGGCTACGACGGGATT
B8: UGAUCCC (DNA:RNA)
RNA: B1 RNA with A25U, U26G, C27A, C28U, G29C, G30C
DNA 1: CAATCTGAATTCCGGTCTCCC
DNA 2: TGGTGGCTACGACGGGATT
B9: ACGAACC (DNA:RNA)
RNA: B2 RNA with G25A, A26C, U27G, U31C
DNA 1: CAATCTGAATTCCGGTCTCCC
DNA 2: TGGTGGCTACGACGGGATT
B10: CGCCUCC (DNA:RNA)
RNA: B1 RNA with A25C, U26G, G29U, G30C
DNA 1: CAATCTGAATTCCGGTCTCCC
DNA 2: TGGTGGCTACGACGGGATT
B11: GGGAAAG (DNA:RNA)
RNA: B2 RNA with A26G, U27G, C30A, U31G
DNA 1: CAATCTGAATTCCGGTCTCCC
DNA 2: TGGTGGCTACGACGGGATT
B12: CAAGAAA (DNA:RNA)
RNA: B2 RNA with G25C, U27A, A28G, C30A, U31A
DNA 1: CAATCTGAATTCCGGTCTCCC
DNA 2: TGGTGGCTACGACGGGATT
B13: GAAGGGC (DNA:RNA)
RNA: B1 RNA with A25G, U26A, C27A, C28G
DNA 1: CAATCTGAATTCCGGTCTCCC
DNA 2: TGGTGGCTACGACGGGATT
B14: AAGAGAA (DNA:RNA)
RNA: B1 RNA with U26A, C27G, C28A, G30A, C31A
DNA 1: CAATCTGAATTCCGGTCTCCC
DNA 2: TGGTGGCTACGACGGGATT
B15: AGUUGCU (DNA:RNA)
RNA: B2 RNA with G25A, A26G, A28U, A29G
DNA 1: CAATCTGAATTCCGGTCTCCC
DNA 2: TGGTGGCTACGACGGGATT
B16: CAGAGCC (DNA:RNA)
RNA: B2 RNA with G25C, U27G, A29G, U31C
DNA 1: CAATCTGAATTCCGGTCTCCC
DNA 2: TGGTGGCTACGACGGGATT
B17: AGCUCGG (DNA:RNA)
RNA: B1 RNA with U26G, C28U, G29C, C31G
DNA 1: CAATCTGAATTCCGGTCTCCC
DNA 2: TGGTGGCTACGACGGGATT
B18: UCCAGCA (DNA:RNA)
RNA: B1 RNA with A25U, U26C, C28A, G30C, C31A
DNA 1: CAATCTGAATTCCGGTCTCCC
DNA 2: TGGTGGCTACGACGGGATT
B19: AUUAGGG (DNA:RNA)
RNA: B1 RNA with C27U, C28A, C31G
DNA 1: CAATCTGAATTCCGGTCTCCC
DNA 2: TGGTGGCTACGACGGGATT
B20: UUACUGU (DNA:RNA)
RNA: B1 RNA with A25U, C27A, G29U, C31U
DNA 1: CAATCTGAATTCCGGTCTCCC
DNA 2: TGGTGGCTACGACGGGATT
B21: AGCUGAU (DNA:RNA)
RNA: B1 RNA with U26G, C28U, G30A, C31U
DNA 1: CAATCTGAATTCCGGTCTCCC
DNA 2: TGGTGGCTACGACGGGATT
B22: GGCUAUG (DNA:RNA)
RNA: B2 RNA with A26G, U27C, A28U, C30U, U31G
DNA 1: CAATCTGAATTCCGGTCTCCC
DNA 2: TGGTGGCTACGACGGGATT
B23: GAGGAAU (DNA:RNA)
RNA: B2 RNA with U27G, A28G, C30A
DNA 1: CAATCTGAATTCCGGTCTCCC
DNA 2: TGGTGGCTACGACGGGATT
B24: AUAGCAU (DNA:RNA)
RNA: B1 RNA with C27A, C28G, G29C, G30A, C31U
DNA 1: CAATCTGAATTCCGGTCTCCC
DNA 2: TGGTGGCTACGACGGGATT
B25: UACUCCU (DNA:RNA)
RNA: B2 RNA with G25U, U27C, A28U, A29C
DNA 1: CAATCTGAATTCCGGTCTCCC
DNA 2: TGGTGGCTACGACGGGATT
B26: CCCGAUC (DNA:RNA)
RNA: B1 RNA with A25C, U26C, C28G, G29A, G30U
DNA 1: CAATCTGAATTCCGGTCTCCC
DNA 2: TGGTGGCTACGACGGGATT
B27: GGAAGCC (DNA:RNA)
RNA: B2 RNA with A26G, U27A, A29G, U31C
DNA 1: CAATCTGAATTCCGGTCTCCC
DNA 2: TGGTGGCTACGACGGGATT
B28: GAUCCAC (DNA:RNA)
RNA: B2 RNA with A28C, A29C, C30A, U31C
DNA 1: CAATCTGAATTCCGGTCTCCC
DNA 2: TGGTGGCTACGACGGGATT
B29: AGACUAG (DNA:RNA)
RNA: B1 RNA with U26G, C27A, G29U, G30A, C31G
DNA 1: CAATCTGAATTCCGGTCTCCC
DNA 2: TGGTGGCTACGACGGGATT
B30: UCUCUUC (DNA:RNA)
RNA: B1 RNA with A25U, U26C, C27U, G29U, G30U
DNA 1: CAATCTGAATTCCGGTCTCCC
DNA 2: TGGTGGCTACGACGGGATT
B31: AGCGGGG (DNA:RNA)
RNA: B1 RNA with U26G, C28G, C31G
DNA 1: CAATCTGAATTCCGGTCTCCC
DNA 2: TGGTGGCTACGACGGGATT

The assay concerns the target T1, RBFOX1 RRM RbFoxmut (Fox-RRM*). Briefly: EMSA; HiTS-Eq, 1 nM pool, 10 min; buffer printed only for the single-RNA assays: 10 mM Tris pH 7.5, 150 mM NaCl, 3.4 mM EDTA, 0.001% NP-40, 30 C. To be noted: tags: His6 N-terminal (pET28a); label: 5' 32P. In a few lines:
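These values rest on relative association constants, computed from read-count changes of each RNA species versus the control reaction and normalised to the cognate motif. Reads came from free RNA recovered by 8% native PAGE after purified RbFox RRM (wild type or mutant) at increasing concentrations was equilibrated for 10 min in 50 µL with 1 nM of a 5′-radiolabelled pool with 7 randomized nucleotides and DNA-annealed flanks.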
Background: A gel shift assay detects complexes by their altered migration in electrophoresis.
Take B1: the binding signal is 0.0968 KA relative to UGCAUGU.

With B2, the binding signal was 0.083 KA relative to UGCAUGU. The result for B3 reads 0.175 KA relative to UGCAUGU. Then B4, with 0.0815 KA relative to UGCAUGU. Then B5, with 0.0493 KA relative to UGCAUGU. For the molecule B6, the binding signal is 0.062 KA relative to UGCAUGU. Regarding B7, the binding signal is 0.0636 KA relative to UGCAUGU. The result for B8 reads 0.0513 KA relative to UGCAUGU. For the molecule B9, the binding signal was 0.0819 KA relative to UGCAUGU. For B10, the binding signal was 0.0583 KA relative to UGCAUGU.

B11: the binding signal is 0.0726 KA relative to UGCAUGU. Take B12: the binding signal was 0.0895 KA relative to UGCAUGU. As for B13, the binding signal is 0.0449 KA relative to UGCAUGU.

On to B14, for which the binding signal was 0.115 KA relative to UGCAUGU. Then B15, with 0.0923 KA relative to UGCAUGU; and B16, with 0.135 KA relative to UGCAUGU.

For B17, the binding signal was 0.108 KA relative to UGCAUGU. B18: the binding signal was 0.123 KA relative to UGCAUGU. The result for B19 reads 0.0841 KA relative to UGCAUGU; that for B20, 0.113 KA relative to UGCAUGU; that for B21, 0.112 KA relative to UGCAUGU.

With B22, the binding signal was 0.405 KA relative to UGCAUGU. Then B23, with 0.12 KA relative to UGCAUGU. In the case of B24, the binding signal was 0.111 KA relative to UGCAUGU. The result for B25 reads 0.066 KA relative to UGCAUGU; that for B26, 0.0576 KA relative to UGCAUGU. Then B27, with 0.066 KA relative to UGCAUGU; and B28, with 0.0722 KA relative to UGCAUGU; and B29, with 0.0893 KA relative to UGCAUGU. The result for B30 reads 0.0532 KA relative to UGCAUGU; that for B31, 0.0911 KA relative to UGCAUGU.
